Measurements reported in PubChem BioAssay AID485367 (National Center for Advancing Translational Sciences (NCATS), 2010).
Hit rate of the full screen: of about 330,000 compounds, about 560 (0.17%) were called active. Inconclusive results (about 1%) are left out. Calls follow the shape of the dose curve; as a rule, active = well fitted inhibition curve with a large enough effect; inconclusive = small, poorly fitted or top-dose-only effect, or effect the other way; inactive = flat fitted curve, though single readings scatter. The entries are a selection whose mix differs from that of the whole data set. Some compounds were tested as several samples or in several runs, with calls that do not always agree.

Each compound was assayed against ATP-dependent 6-phosphofructokinase (Trypanosoma brucei brucei) (UniProt O15648) (assay: qHTS Assay to Find Inhibitors of T. brucei phosphofructokinase). Conditions: T. brucei PFK, ADP-Glo luminescence; series mostly up to 57.5 µM; activity, negative = inhibition: at the top concentration.
Excerpt: NIH Molecular Libraries Probe Production Network [MLPCN] NIH Chemical Genomics Center [NCGC] Grant: 1 R03 MH092153-01 PI Name: Malcolm Walkinshaw, University of Edinburgh NCGC Assay Overview: Various species of the protozoan family Trypanosomatidae are responsible for a range of serious human diseases in tropical and subtropical areas of the world. […] Many of the disorders caused by trypanosomatids are fatal if left untreated, but most currently used drugs are inefficient and toxic. […] Oxidative metabolism involving the mitochondrial tricarboxylic acid cycle and oxidative phosphorylation are repressed in these parasites, and recent RNA interference (RNAi) experiments have shown that even partial depletion of certain individual glycolytic enzymes can lead to the death of cultured parasites. One such glycolytic enzyme, phosphofructokinase (PFK), catalyzes the formation of fructose-1,6-bisphosphate (F1,6BP) and ADP from fructose-6-phosphate (F6P) and ATP, and in many metabolic circumstances makes an important contribution to the control of flux through the glycolytic pathway. As a specific glycolytic target, PFK is particularly attractive as it catalyzes the first irreversible step in glycolysis, and structural and kinetic studies have shown very substantial and essential differences from corresponding host enzymes, allowing for the discovery of parasite-selective inhibitors. The goal of this screen is to find small-molecule inhibitors of T. brucei PFK using a biochemical assay that measures PFK activity as a function of ADP production. A luminescence-based assay for T. brucei PFK activity has been developed which uses luciferase to detect production of ADP. Traditional luciferase-based nucleotide detection reagents rely on ATP production as a direct substrate for the luciferase reaction; however, PFK catalyzes the transfer of a phosphate from ATP to F6P, resulting in the net depletion of ATP. To directly measure the ADP product of the PFK reaction, we used the ADP-Glo detection kit (Promega), which utilizes two separate reactions to 1) deplete all remaining uncatalyzed ATP and 2) convert all remaining ADP to ATP, which is then detected through a traditional luciferase-coupled reaction. Compounds were screened as a concentration-titration series that ranged from 57 uM to 0.7 nM.
NCGC Assay Protocol Summary: NCGC Assay Protocol Summary: Substrate buffer was dispensed into white, solid 1536-well plates at 3uL/well in 0.1M triethanolamine (TEA) buffer, pH 8.0, containing final concentrations of 5 mM MgCl2, 0.01% Tween20, 0.5 mM fructose-6-phosphate (F6P) and 0.1mM ATP. Then, 23 nL of compounds or DMSO were delivered to each well using a pin tool. One uL T. brucei PFK (0.1M TEA, 0.01% Tween20, 0.1% bovine serum albumin (BSA) and 1.25nM PFK, final concentrations) was then dispensed, and plates were incubated at room temperature for 45 min. The luminescent detection reagent, ADP-Glo (Promega), was then added in two steps: the first reagent, ADP-Glo (which converts remaining uncatalyzed ATP), was added at 2.5uL/well and incubated for ten minutes at room temperature, and the second component, Kinase Detection reagent (which converts ADP to ATP as a substrate for luciferase-based luminescence), was added immediately after at 5uL/well, followed by one final ten minute room temperature incubation. The plates were measured on a ViewLux plate reader for luminescent signal using a clear filter with a one second exposure. The %Activity was determined from the corrected luminescence values. As no specific T. brucei PFK inhibitors have been identified in the literature, 1x (1.25nM) and 0x PFK enzyme controls (untreated) were included to normalize %Activity of identified inhibitors; 0x enzyme values corresponded to 100%Activity (full inhibition), while 1x PFK enzyme values were used to normalize 0%Activity (no inhibition). Concentration-response curves were fitted to the signals arising from the resulting luminescence. […]
Also: nearly all actives have a fitted effect of over 60% in size.
Potency is read from the fitted curve at half-maximal effect.

Sequence of UniProt O15648 (O15648 whole entry, looked up): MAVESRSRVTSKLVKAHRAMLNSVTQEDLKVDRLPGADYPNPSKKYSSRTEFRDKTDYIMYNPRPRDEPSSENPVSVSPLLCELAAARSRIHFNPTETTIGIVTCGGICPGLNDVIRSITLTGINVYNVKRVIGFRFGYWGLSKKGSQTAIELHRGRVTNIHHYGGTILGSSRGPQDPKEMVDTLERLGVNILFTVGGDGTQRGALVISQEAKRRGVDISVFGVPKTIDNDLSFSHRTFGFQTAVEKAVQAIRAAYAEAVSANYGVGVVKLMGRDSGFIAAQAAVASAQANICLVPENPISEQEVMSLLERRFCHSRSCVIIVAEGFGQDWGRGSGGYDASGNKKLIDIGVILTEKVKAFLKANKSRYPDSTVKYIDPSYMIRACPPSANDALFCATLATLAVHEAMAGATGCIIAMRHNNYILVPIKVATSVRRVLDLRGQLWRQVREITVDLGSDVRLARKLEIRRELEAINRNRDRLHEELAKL

| Structure (SMILES) | activity, negative = inhibition | Potency |
| --- | --- | --- |
| CC(C)(C)OC(=O)C[C@@H]1C/C=C\C[C@H](CC(=O)NCCO)C(=O)NC[C@H](c2ccccc2)OC1=O | inactive: 0.641% |  |
| C[C@@H]1O[C@@H](OC2C(O)C(OCCc3ccc(O)c(O)c3)OC(CO)C2OC(=O)/C=C/c2ccc(O)c(O)c2)[C@H](O)[C@H](O)[C@H]1O (stereo partly specified) | inactive: -4.32% |  |
| CC(C)(C)OC(=O)C[C@H]1C/C=C\C[C@@H](CC(=O)NCCO)C(=O)NC[C@H](c2ccccc2)OC1=O | inactive: -6.4% |  |
| COC(=O)/C(C(C)=O)=C(/C=C/C=C/N(C)C)N(C)C | inactive: -2.89% |  |
| CN(C)CCC(c1ccc(Br)cc1)c1ccccn1 (stereo unspecified) | inactive: -1.19% |  |
| CC(C)(C)OC(=O)C[C@@H]1C/C=C\C[C@H](CC(=O)NCCO)C(=O)NC[C@@H](c2ccccc2)OC1=O | inactive: 9.12% |  |
| CS(=O)(=O)N1CC(C(=O)NC2CC2)Oc2ccc(Cl)cc21 (stereo unspecified) |  | active: 21.3 µM |
| COc1ccccc1/C=C\C=N\n1c(-c2ccc(Cl)cc2)n[nH]c1=S | inactive: -21% |  |
| COc1ccccc1C(=O)Nc1ccc2c(c1)C(=O)NC2=O |  | active: 23.9 µM |
| COC(=O)[C@@]12CCCN1[C@H](c1ccc(-c3ccccc3)cc1)[C@H]1C(=O)N(C)C(=O)[C@H]12 | inactive: -8.21% |  |
| FC(F)(F)c1cccc(NC(=S)Nc2ccc(Cl)c(Cl)c2)c1 |  | active: 9.53 µM |
| CN(Cc1ccco1)Cc1ccc(O)c2ncccc12 | inactive: -14.6% |  |
| CC(C)(C)OC(=O)C[C@H]1C/C=C\C[C@H](CC(=O)N(CCO)Cc2ccccc2)C(=O)N[C@H](C(C)(C)C)COC1=O | inactive: -3.51% |  |
| CC(C)(C)OC(=O)C[C@H]1C/C=C\C[C@@H](CC(=O)N(CCO)Cc2ccccc2)C(=O)N[C@H](C(C)(C)C)COC1=O | inactive: 4.18% |  |
| Cc1ccc(C(O)(C(=O)NNc2ccc3ccccc3n2)c2ccc(C)cc2)cc1 | inactive: 6.45% |  |
| NC(=O)C1CCN(c2nc(-c3ccc4occc(=O)c4c3)cs2)CC1 | inactive: 10.3% |  |
| CC(=O)C[C@H](O)CC(=O)[C@H]1OC(=O)[C@@H](C)CCCCc2ccccc21 | inactive: 5.81% |  |
| O=C(O)c1ccc(NCc2cccc(Br)c2)cc1 |  | active: 21.3 µM |
| Cc1nc(N)nc(SCc2ccc([N+](=O)[O-])cc2)c1N |  | active: 13.5 µM |
| C#CCNc1ccc([N+](=O)[O-])cc1 |  | active: 23.9 µM |
| O=C(CCCN1C(=O)/C(=C\c2cccs2)SC1=S)Nc1cccnc1 | inactive: -3.3% |  |
| C=CC[C@@H](CC(=O)N[C@H](CO)Cc1ccccc1)C(=O)N[C@@H](COC(=O)[C@@H](CC=C)Cc1ccc(F)cc1)Cc1ccccc1 | inactive: 0% |  |
| Cc1cc(C)c2c(=O)n(CC(=O)N3CCC(N4CCCCC4)CC3)sc2n1 |  | active: 2.39 µM |

| Structure (SMILES) | activity, negative = inhibition | Potency |
| --- | --- | --- |
| Cc1nc(C)c(/C(O)=C\c2nc3ccc([N+](=O)[O-])cc3oc2=O)o1 | inactive: -15.7% |  |
| Cc1ccc(S(=O)(=O)N2C[C@@H]3[C@H]4CC[C@H](C4)[C@@H]3[C@@H](C)[C@@H]2c2ccco2)cc1 | inactive: -3.29% |  |
| CCN1C(=O)/C(=C/c2nc3ccccc3c(=O)n2-c2ccccc2)c2ccccc21 | inactive: -2.66% |  |
| CCn1c(SCC(=O)N/N=C/C(C)=C/c2ccco2)nnc1-c1ccccc1 | inactive: -9.96% |  |
| N#Cc1ccc(N=c2ssnc2Cl)cc1 | inactive: -14% |  |
| O=C(Cc1ccc(F)cc1)Nc1ccc(S(=O)(=O)N2CCCC2)cc1 |  | active: 16.9 µM |
| CC(=O)C[C@H](O)CC(=O)[C@H]1OC(=O)[C@H](C)CCCCc2ccccc21 | inactive: 0% |  |
| S=C(NCc1ccccc1)N1CCN(c2cccc(Cl)c2)CC1 |  | active: 26.9 µM |
| CC(C)NC[C@H](O)c1ccc(O)c(O)c1 | inactive: -9.09% |  |
| CC(/C=C\c1cccnc1)=C/C(=O)O | inactive: 0.844% |  |
| COc1ccc(CNC(=O)N2CCN(c3cccc(Cl)c3)CC2)cc1OC |  | active: 26.9 µM |
| CCSc1nc2ccccc2n1C(=O)/C=C\c1ccc(OC)c(OC)c1 | inactive: 1.99% |  |
| COc1ccc(C(=S)NCS(=O)(=O)c2ccc(C)cc2)cc1 |  | active: 21.3 µM |
| O=[N+]([O-])c1ccc(SCCc2ccncc2)cc1 | inactive: -17.6% |  |
| COC(=O)c1sc(NC(=O)c2cc(-c3ccccc3)nc3ccccc23)c(C#N)c1C |  | active: 6.75 µM |
| CN1CCN(C(=O)/C(=C/c2ccccc2)c2ccccc2)CC1 | inactive: -0.21% |  |
| CCOc1cc(/C=C2/NC(=O)NC2=O)cc([N+](=O)[O-])c1O | inactive: 28.7% |  |
| CN(C)/C=C1\C=C(c2ccccc2)OC1=O | inactive: -29.9% |  |
| CCOC(=O)CN1C(=O)N[C@H](c2ccc(Br)cc2)C(C(C)=O)=C1C | inactive: -3.74% |  |
| CN(C)CCCNc1cc(O)c2ncccc2c1 | inactive: -12.9% |  |
| Cc1ccc(NS(=O)(=O)c2cc(NC(=O)c3ccc4c(c3)NC(=O)CS4)ccc2C)c(C)c1 |  | active: 21.3 µM |
| C[C@@H](NC(=O)c1nc[nH]c1C(=O)NCc1ccccc1)c1ccccc1 | inactive: 1.87% |  |
| O=[N+]([O-])c1ccc(CNc2ccc(Cl)cc2)s1 |  | active: 26.9 µM |
